Assay results published in the RNAGym collection of RNA variant scans (doi:10.1073/pnas.2313332121).
Variants at the floor of the assay are shown more often than the library holds them.

B1: TPR 5TU (parent)
chain: GGAUCUUCUCGAUCUAACAAAAAAGACAAAUCUGCCACAAAGCUUGAGAGCAUCUUCGGAUGCAGAGGCGGCAGCCUUCGGUGGCGCGAUAGCGCCAACGUUCUCAACUAUGACACGCAAAACGCGUGCUCCGUUGAAUGGAGUUUAUCAUG

Variants of: B1
Assay: polymerase ribozyme fitness, log enrichment relative to wild type (log ratio); higher = more active; in vitro selection for triplet polymerase activity
Method in brief: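 Libraries of mutants in each subunit of a heterodimeric triplet polymerase ribozyme were generated by PCR and transcribed. In triplicate, each went through one in vitro selection round: annealing with biotinylated primer, partner subunit and triplets; frozen incubation at −7 °C; gel excision of extended constructs; streptavidin-bead capture; RT-PCR. Fitness, taken from Illumina sequencing of input and output libraries, is the logarithm of a genotype's enrichment over wild-type enrichment, averaged across replicates with inverse-variance weights. The logarithm is base 2, and genotypes needed ≥10 input reads and ≥1 read per output to be kept.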
With GGAUCUUCGCGAUCUAACAAAAAAGACAAAUCUGCCACAAAGCUUGAGAGCAUCUUCGGAUGCAGCGGCGGCAGCCUUCGGUGGCGCGAUAGCGUAAACGUUCUCAACUAUGACACGCAAAACGCGUGCUUCGUUGAAUGGAGUUUAUCAUG [U9G A66C C95U C96A C131U] the “polymerase ribozyme fitness (log ratio)” value was at most -4.2. In the case of GGAUCUUCGCGAUCUAACAAAAAAGACAAAUCUGCCACACAGCUUGAGAGCAUCUUCGGAUGCAGAGGCGGCAGCCUUCGGUGGCGCGAUAGCGCCAACGUUCUCAACUAUGACACGCAAAACGCGUGCUCCGUUGAAUGGAGUUUAUCAUG [U9G A40C], the “polymerase ribozyme fitness (log ratio)” value is reported as -3.48. For GGAUCUUCGCGAUCUAACAAAAAAUACAAAUCUGCCACAAAGCUUGAGAGCAUCUUCGGAUGCGGAGGCGGCGGCCUUCGGUGGCGGGUUAGCGCCAACGUUCUCAACUAUGACACGCAAAACGGGUGCUCCGUUGUAUGGAGUUUAUCAUG [U9G G25U A64G A73G C87G A89U C125G A137U], the “polymerase ribozyme fitness (log ratio)” value was at most -4.2. With GGAUCUUCGCGAUCUAACAAAAAAGACAAAUCUGCCACAAAGCUUGAGAGCAUGUUCGGAUGCAGAGGCGGCAGCCUUCGGUGGCUCGAUAGCACCAACGUUCUCAACUAUGACACGCAAAACGCGUGCUCCGUUGAAUAGAGUUUAUCGUG [U9G C54G G86U G94A G140A A150G] the “polymerase ribozyme fitness (log ratio)” value was at most -4.2. With GGAUCUUCGUGAUCUAACAAAAAAGCCAAAUCUGCCACAAAGCUUGAGAGCAUCUUCGGAUGCAGAGGCGGCAGCCUUCGGUGGCGCGAUAGCGCCAACGUUCUCAACUAUGACACGCAAAACGCGUGCUCGGUUGAAAGGAGUUUAUCAUG [U9G C10U A26C C132G U139A] the “polymerase ribozyme fitness (log ratio)” value was at most -4.2. In the case of GGAUCUUCGCGAUCUAACAAAAAAGAAAAAUCUGCCACAAAGCUUGAGAGCAUCUUCGGAUGCAGAGGCGGCAGCCUUCGGUGGCGCGAUAGCGCAAACGUUCUCAACUAUGACACGCAAAACGCGUGCUCCGUUGAAUGGAGUUUAUCAUG [U9G C27A C96A], the “polymerase ribozyme fitness (log ratio)” value is reported as at most -4.2. For GGAUCUUCGCGAUCUAACAAAAAAGACAAAUCUGCCACAAGACUUGAGAGCAUCGUCGGAUGCAGAGGAGGCAGCCUUUGGAGGCGCGAUAGCGCCAACGUUCUCAACUAUGACACGCAAAACGCGUGCUCCGUUGAAUGGAGUUUAUCAUG [U9G A41G G42A U55G C69A C79U U82A], the “polymerase ribozyme fitness (log ratio)” value was at most -4.2. In the case of GGAUCUUCGCGAUCUAACAAAAAAGACACAUGUGCCACAAAGCUUGAGAGCAUCUUCCGAUGCAGAGGCGGCAGCAUUAGGUGGCGCGAUAGCGCCAACGUUCUCAACUAUGACACGGAAAACGCGUGCUCCGUUGAAUGCAAUUUAUCAUG [U9G A29C C32G G58C C76A C79A C118G G141C G143A], the “polymerase ribozyme fitness (log ratio)” value is reported as at most -4.2. In the case of GGAUCUUCGCGAUCUAACAAAAAAGACAAAUUUGCCAUAAAGCUUGAGCGCAUCUUCAGUUGCAGAGGCGGCAGCCUUCGGUGGCGGGAUAGCGUCAACGUUCUCAACUAUGACACGCAAAACGCGUGCUCCUUUGAAUGGUGUUUAUCAUG [U9G C32U C38U A49C G58A A60U C87G C95U G133U A142U], the “polymerase ribozyme fitness (log ratio)” value is reported as at most -4.2. With GGAUCUUCGCGAUCUAACAAAAAAGACAAAUCUGCCACAAAGCUUGAGAGCAUGUUAGGAUGCAGAGGCGGCAGCCUUCGGUGGUGCGAUAGCGCCAACGUUCUCAACUAUGACACUCAAAACGCGUGCUCCGUUGAAUGGAGUUUAUCAUG [U9G C54G C57A C85U G117U] the “polymerase ribozyme fitness (log ratio)” value was at most -4.2. For GGAUCUUCGCGAUCUAACAAAAAAGUCAAAUCUGCCACAAAGCUUGAGAGCAUCUUCGGAUGCAGAGGCGGCGGCCUUCGGUGACGCGCUAGCGCCAACGUUCUCAACUAUGACACGCAAAACGCGUGCUCCGUUGAAUGGAGUUUAUCCUG [U9G A26U A73G G84A A89C A150C], the “polymerase ribozyme fitness (log ratio)” value was at most -4.2. With GGAUCUUCGCAAUCUAACAAAAAAGACAAAUCUGCCACAAAGCUUGAGAGCAUCUUCUGAUCCAGAGGCGGCAGCCUUCGGUGGCGCGAUAACGCCAACGUUCUCAACUUUGACACGCAAAACGCGUGCUCCGUUGAAUGGAGUUUAUCAUG [U9G G11A G58U G62C G92A A110U] the “polymerase ribozyme fitness (log ratio)” value was at most -4.2. With GGAUCUUCGCGAUGUAACAAAAAAGACAAAUCUGCCACAAAGCAUGAGAGCAUCUGCGGAUGCAGAAGCGGCAGCCUUCGGUGGCGCGAUAGUGCCAACGUUCUCAACUAUGACACGCAGAACGCGUGCUCCGCUGAAUGGAGUUUAUCAUG [U9G C14G U44A U56G G67A C93U A120G U134C] the “polymerase ribozyme fitness (log ratio)” value was at most -4.2. In the case of GGAUCUUCGCGAUCUAACAAAAAUGACAAAUCUGACAUAAAGCUUGAGAGCAUCUUCGGAUGCAGAGGCGGCAGCCUUCGGUGGAGCGAUAGCGCCAACGUUCUCAACUAUGACACGCAAAACGCUUGCUCCGUUGAAUGGAGUUUAUCAUG [U9G A24U C35A C38U C85A G126U], the “polymerase ribozyme fitness (log ratio)” value is reported as at most -4.2. In the case of GGAUCUUCGCGAUCUAAUAAAAAAGACAAAUCGGCCACAAAGCUUGAGAGCAUCUUCGGAUGCAGAGGCGGCACCCUUCGGUGGCGCGAUAGCGCCAACGUUGUCAACUAUGACACGUAAAACGCGUGCUACGUUGAAUGGAGUUUAUUAUG [U9G C18U U33G G74C C103G C118U C131A C149U], the “polymerase ribozyme fitness (log ratio)” value is reported as at most -4.2. With GGAUCUUCGCGAUCUAACAAAAAAGAGGAAUCUGCCACAAAGCUUGAGAGCAUCUUCGGAUGCAGAGGCGGCAGCCUUCGGUGGCGCGAUAGAGCCAACGUUCUCAACUAUGACACGCAAAACGCGUGCUCCGUUGAAUGUAGUUUAUCAUG [U9G C27G A28G C93A G141U] the “polymerase ribozyme fitness (log ratio)” value was at most -4.2. In the case of GGAUCUUCGCGAUCUAACAAAAAAGACAAAUCUGCCACAAAGCUUGAGAGUAUCUUCGGAUGCAGAGGCGGCAGCCUUCGGUGGCGCGAUAGCGCCAACGUUCUCAACUGUGAAACGCAAAACGCGUGCUCCGUUGACUGGAGUUUAUCAUG [U9G C51U A110G C114A A138C], the “polymerase ribozyme fitness (log ratio)” value is reported as at most -4.2. With GGAUCUUCGCUAUCUAACAAAAAAGACAAAUCUGCCAUAAAGCUUGAGACCAUCUUCGGAUGCAGAGGCGGCAGCCUUCGGUGGCGCGAUAGCGCCAACGUUCUCUACUAUGACACGCAAAACGCGUGCUCCGUUUAAUGGAGUUUAUCAUG [U9G G11U C38U G50C A106U G136U] the “polymerase ribozyme fitness (log ratio)” value was at most -4.2. With GGAUCUUCGCGAUCUAACAAAAAAGACAAAUCUGCCUCAAAGCUUGAGAGCAUCUUUGGAUGCAGAGGCGGCAGCCUUCGGUGGUGCGAUAGCGCCAACGUUCUCAACUAUGACACGCAAAACGCGUACUCCGUUGAAUGAAGUUAAUCAUG [U9G A37U C57U C85U G128A G141A U146A] the “polymerase ribozyme fitness (log ratio)” value was at most -4.2.
